The source of these data is publication PMC10148413.

Chains of the proteins cited; added tags and fusions are not shown. Lines headed by an entry give the natural chain unless they say otherwise; changes in a name come on top.
UniProt Q24572: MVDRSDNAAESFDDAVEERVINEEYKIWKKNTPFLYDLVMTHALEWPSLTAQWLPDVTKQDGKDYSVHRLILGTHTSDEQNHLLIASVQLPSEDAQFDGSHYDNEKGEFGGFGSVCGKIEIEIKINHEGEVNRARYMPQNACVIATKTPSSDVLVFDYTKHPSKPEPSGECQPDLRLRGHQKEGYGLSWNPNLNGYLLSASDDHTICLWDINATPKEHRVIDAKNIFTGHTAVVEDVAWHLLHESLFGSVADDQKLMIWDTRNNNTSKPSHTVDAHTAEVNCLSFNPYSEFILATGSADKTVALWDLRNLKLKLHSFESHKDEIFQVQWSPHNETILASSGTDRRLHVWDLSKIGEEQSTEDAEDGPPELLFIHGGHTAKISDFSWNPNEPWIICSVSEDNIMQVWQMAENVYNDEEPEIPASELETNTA

The target in experiment [1] is T1, 6× His-tagged Ash1 (1041–2226 a.a.) (fly) (UniProt Q9VW15).
T1 sequence: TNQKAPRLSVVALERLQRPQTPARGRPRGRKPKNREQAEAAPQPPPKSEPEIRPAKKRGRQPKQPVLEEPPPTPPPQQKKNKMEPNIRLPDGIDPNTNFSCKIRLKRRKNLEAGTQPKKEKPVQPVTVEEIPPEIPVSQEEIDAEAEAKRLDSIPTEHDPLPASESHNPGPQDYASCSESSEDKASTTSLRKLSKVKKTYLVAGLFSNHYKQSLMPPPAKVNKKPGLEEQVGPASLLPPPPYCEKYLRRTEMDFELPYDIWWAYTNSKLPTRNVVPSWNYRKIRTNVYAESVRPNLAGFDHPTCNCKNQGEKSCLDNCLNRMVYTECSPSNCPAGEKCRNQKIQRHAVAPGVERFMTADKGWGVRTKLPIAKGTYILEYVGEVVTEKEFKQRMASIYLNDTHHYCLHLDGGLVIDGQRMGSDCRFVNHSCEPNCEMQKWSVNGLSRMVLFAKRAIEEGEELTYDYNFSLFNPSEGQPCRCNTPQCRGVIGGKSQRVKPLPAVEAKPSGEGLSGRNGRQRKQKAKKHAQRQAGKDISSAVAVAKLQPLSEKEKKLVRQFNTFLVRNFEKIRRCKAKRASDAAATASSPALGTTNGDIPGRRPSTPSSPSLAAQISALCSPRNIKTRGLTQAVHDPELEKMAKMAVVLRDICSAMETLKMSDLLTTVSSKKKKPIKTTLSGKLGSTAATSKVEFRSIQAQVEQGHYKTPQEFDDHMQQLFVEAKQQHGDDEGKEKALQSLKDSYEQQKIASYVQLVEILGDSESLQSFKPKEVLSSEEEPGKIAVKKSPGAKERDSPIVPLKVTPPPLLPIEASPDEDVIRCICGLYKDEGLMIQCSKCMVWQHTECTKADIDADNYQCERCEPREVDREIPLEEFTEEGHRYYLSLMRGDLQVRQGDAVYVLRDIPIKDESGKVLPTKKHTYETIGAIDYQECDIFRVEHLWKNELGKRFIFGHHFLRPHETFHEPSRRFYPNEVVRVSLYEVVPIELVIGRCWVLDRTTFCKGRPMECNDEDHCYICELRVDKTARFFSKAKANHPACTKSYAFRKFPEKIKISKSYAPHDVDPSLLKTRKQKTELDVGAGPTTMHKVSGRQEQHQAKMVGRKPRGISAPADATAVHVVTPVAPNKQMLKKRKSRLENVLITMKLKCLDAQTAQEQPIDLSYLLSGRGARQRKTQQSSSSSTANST
Description: co-purification (Ni-NTA, HiTrap Q HP, Superdex 200); His-tagged Ash1 (1041-2226), Mrg15 and Caf1 co-expressed in Sf9 cells; Ni-NTA with washes up to 1 M NaCl, tag cut by TEV, ion exchange and size exclusion in 300 mM NaCl, 50 mM Tris-HCl (8.0). A general note: SEC sorts molecules by how far they enter the pores of the column.

Another experiment has as its target T2, GST-CBM_(E1591A) (fly) (UniProt Q9VW15).
T2 sequence: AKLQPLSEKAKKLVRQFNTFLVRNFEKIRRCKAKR
In words: pull-down; GST-Ash1 fragments held on GST resin; 200 µL of 0.1 mg/mL purified Caf1 added for 1 h; 150 mM NaCl, 50 mM Tris-HCl (8.0); bound proteins analysed by SDS-PAGE; both purified.

The target of a further experiment is T3, GST-CBM_(R1604A) (fly) (UniProt Q9VW15).
T3 sequence: T2 sequence with A10E, R23A
The description is as above.

For experiment [2], the target named is T4, GST-CBM (Ash1 Caf1 Binding Motif, 1582–1616) (fly) (UniProt Q9VW15).
T4 sequence: T2 sequence with A10E
The experiment is described as above.

Where a chain is given by its changes, count along the chain named. These are yes or no findings as the source states them, for the method shown. Some results given as binding are weak or reduced against the parent protein; the word gives no strength. Where a sequence is shown, tags or fusion partners need not be part of it.

Consider “full-length Caf1 (subunit of the AMC complex) (from UniProt Q24572 1-430)”, for which the binding entry in experiment [1] is recorded as “binds”.

As for “Fly Caf1 wild-type (from UniProt Q24572 1-430)”, the binding entry in the experiment with GST-CBM_(E1591A) (fly) and in the experiment with GST-CBM_(R1604A) (fly) was “no binding (tested: 200 µL of 0.1 mg/mL purified Caf1)” throughout. Regarding “Fly Caf1 H4 binding pocket mutant (D362A/D365A) (from UniProt Q24572 1-430)”, the binding result in experiment [2] is “no binding (tested: 200 µL of 0.1 mg/mL purified Caf1)”.
